According to PubChem BioAssay AID1347073 (National Center for Advancing Translational Sciences (NCATS), 2019):
The whole screen tested about 45,000 compounds, of which about 200 (0.44%) were called active. About 7% were inconclusive and are not listed. Calls follow the shape of the dose curve; as a rule, active = well fitted activation curve with a large enough effect; inconclusive = small, poorly fitted or top-dose-only effect; inactive = no such curve, though single readings can be large or run the other way. The list shows a part of the results.

experiment: qHTS of TDP-43 Inhibitors: NCGC Sytravon Library Screen; settings: yeast TDP-43 toxicity rescue, BacTiter-Glo growth, 24 h; series mostly up to 46.1 µM; growth rescue (activation): at the top concentration; also: 0% is about no effect; nearly all actives have a fitted effect of over 55% in size
How it was run: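 TDP-43-expressing yeast, pregrown in raffinose, seeded at OD600 0.02 in galactose medium with compound for 24 hr at 30 deg C. Growth read by BacTiter-Glo luminescence, so rescue of toxicity appears as activation.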

Structure (SMILES) | growth rescue (activation)
CN(c1ccc(C(=O)N2CCN(Cc3ccccc3)CC2)cc1)S(=O)(=O)c1ccccc1 | inactive: -16.2%
COc1cc(C(=S)N2CCOCC2)cc(OC)c1OC(=O)c1ccccc1[N+](=O)[O-] | inactive: -10.7%
CC(NCC(=O)Nc1ccccc1C(=O)NC1CC1)c1cccc(Cl)c1 (stereo not drawn) | inactive: 20.1%
COc1ccc(CNC(=O)COC(=O)Cc2ccc(Br)cc2)cc1 | inactive: 16.7%
O=C(Nc1ccc([N+](=O)[O-])cc1)Nc1ccc(Cl)cc1F | inactive: -10.5%
CCCNC(=O)c1cc(C2CCCCN2S(=O)(=O)Cc2cccc(C(F)(F)F)c2)on1 (stereo not drawn) | inactive: 34.9%
CCOC(=O)Nc1ccc2c(COC(=O)CN(C)S(=O)(=O)c3ccc(C)cc3)cc(=O)oc2c1 | inactive: -1.87%
CCn1c(=O)c2cc(C(=O)N(C)c3ccccc3F)sc2c2ccccc21 | inactive: 4.9%
CCCc1nnc(SCC(=O)Nc2ccc(OC)cc2)o1 | inactive: -0.417%
Cc1cc(C)n(CCNS(=O)(=O)c2ccccc2)n1 | inactive: 8.54%
COc1ccc(C2CCCN2C(=S)Nc2cccc(Cl)c2)cc1OC (stereo not drawn) | inactive: 26%
O=C(Nn1c(-c2ccncc2)nc2ccccc2c1=O)c1ccc([N+](=O)[O-])cc1Cl | inactive: -2.17%
Cc1cc(C)c(NC(=O)CSc2nnnn2-c2cccnc2)c(C)c1 | inactive: 7.15%
COc1cccc(CN2CCNC(=O)C2CC(=O)NCCc2ccccn2)c1 (stereo not drawn) | inactive: -16%
O=C(c1cc(F)ccc1F)C1CCCN(C(=O)CCc2cnccn2)C1 (stereo not drawn) | inactive: 14.7%
COC(CNC(=O)C1CCCN1C(=O)OCc1ccccc1)OC (stereo not drawn) | inactive: -9.69%
Cn1c(=O)c2ccccc2n(Cc2ccccc2Cl)c1=O | inactive: 16.6%
CCOC(=O)c1cnc2c(C)cc(C)cc2c1Nc1ccc(S(=O)(=O)Nc2ncccn2)cc1 | inactive: -29.3%
Cc1ccccc1NC(=O)Cn1cnc2c(oc3nc4c(cc32)COC(C)(C)C4)c1=O | inactive: -19.6%
Cc1ccc(N(CCC#N)C(=O)CCl)cc1C | inactive: -0.866%
O=c1cc(N2CCC3(CC2)OCCO3)[nH]c(=O)n1C1CCCCC1 | inactive: -4.13%
COc1cccc(CN2C(=O)NC3(CCCCCC3)C2=O)c1 | inactive: 17.7%

Structure (SMILES) | growth rescue (activation)
Cc1ccc(NC(=O)CN(C)Cc2cc(=O)n3ccsc3n2)cc1 | inactive: -18.2%
CCC(=O)N(Cc1cc(=O)[nH]c2ccccc12)c1ccccc1 | inactive: -5.82%
CS(=O)(=O)Nc1ccc(C(=O)Nc2ccccc2Cl)cc1 | inactive: -5.35%
Cc1cc(NS(=O)(=O)c2ccc(NC(=O)/C=C/c3ccccc3)cc2)no1 | inactive: 2.75%
CC1(C(=O)Nc2ccc3c(c2)OCO3)Cc2c(-c3cccc(C(N)=O)c3)ccnc2O1 (stereo not drawn) | inactive: 7.09%
O=[N+]([O-])c1ccc(OCCCCN2CCCCC2)cc1 | inactive: -1.45%
Cc1ccc(CNC(=O)CO/N=C/c2ccc(C(C)(C)C)cc2)cc1 | inactive: -4.19%
CCOC(=O)c1ccc2ncc(C(=O)OCC)c(Nc3ccc(N4CCOCC4)cc3)c2c1 | inactive: 11.7%
COCCNc1nc(-c2ccccc2)nc2ccccc12 | inactive: 11.8%
CCN(C(=O)c1cc2c(=O)[nH]c3ccc(C)cc3c2s1)c1ccccc1F | inactive: -39.2%
CC1CCN(CCCn2c(=S)[nH]c3ccccc3c2=O)CC1 | inactive: -13.3%
Cc1cc(C)nc(/N=C(\N)Nc2ccc(S(N)(=O)=O)cc2)n1 | inactive: 11.9%
Cc1cc(N2CCOCC2)nc2ccc(NC(=O)CCC(=O)N3CCN(c4ccc(F)cc4)CC3)cc12 | inactive: 14%
COc1cc(NC(=O)C2CCN(c3cnccn3)CC2)cc(OC)c1 | inactive: -5.34%
CCCCN(C(=O)c1cccc(C)c1)c1c(N)n(CCC)c(=O)[nH]c1=O | inactive: 1.37%
CCOc1ccc(/C=C2\SC(=S)N(CCC(=O)Nc3cccc(C(=O)O)c3)C2=O)cc1 | inactive: 0.0297%
COc1cc(/C=C/C(=O)C2C(=O)C=C(C)OC2=O)cc(OC)c1O (stereo not drawn) | inactive: 4.44%
C=CCNc1ncnc2c1ncn2[C@H]1CN(Cc2cccc3ccccc23)C[C@@H](CO)O1 | inactive: 1.37%
CN(Cc1ccc(C(F)(F)F)cc1)C(=O)c1ccc2ccccc2n1 | inactive: 23.7%
COc1ccc(S(=O)(=O)Nc2ccc3c(c2)n(C)c(=O)n3C)cc1 | inactive: 12.9%
O=C(CCCOc1ccccc1)Nc1ccccc1C(F)(F)F | inactive: 26.8%
N#Cc1ccc(/C=C/C(=O)c2cccnc2)cc1 | inactive: -7.15%

Structure (SMILES) | growth rescue (activation)
CCOc1ccc(CN2CCN(Cc3cc4c(cc3Cl)OCO4)CC2CCO)cc1 (stereo not drawn) | inactive: -4.9%
O=C(Nc1ccc(C(=O)O)cc1)/C(=C\c1cccc([N+](=O)[O-])c1)NC(=O)c1ccc(Br)o1 | inactive: -3.62%
CCC(=O)c1cn(CC(=O)Nc2cccc(OC)c2)c2ccccc12 | inactive: 3.89%
CS(=O)(=O)c1ncc(Cl)c(C(=O)Nc2ccc3ccccc3c2)n1 | inactive: 18.3%
CCOc1cc(S(=O)(=O)n2ccnc2)ccc1Br | inactive: 11.6%
N/C(=N\OC(=O)c1ccccc1)c1ccncc1 | inactive: 10.2%
Cc1cc(C)n(C2CC(=O)N(c3ccc(Cl)c(Cl)c3)C2=O)n1 (stereo not drawn) | inactive: 6.39%
CCc1cccc(C)c1NC(=O)Cc1ccsc1 | inactive: 14.4%
Cc1cc2nc(N3C(=O)CNC3=S)sc2cc1C | inactive: -6.75%
CCOC(=O)Cc1ccc(NC(=O)NC(C)c2c(-n3cccc3)sc(C)c2C)cc1 (stereo not drawn) | inactive: 6.5%
COc1cc2cc(CN(Cc3cccnc3)C(=O)NCc3ccccc3)c(=O)[nH]c2cc1OC | inactive: 5.99%
Cc1c(C(=O)Nc2cccc(S(=O)(=O)N3CCOCC3)c2)oc2ccc(Br)cc12 | inactive: 12.3%
COc1ccc(NC(=O)C2(S(=O)(=O)c3ccc(C)cc3)CC2)cc1 | inactive: -0.63%
Cc1ccc(NC(=O)C(=O)NCCN2CCN(S(C)(=O)=O)CC2)cc1C | inactive: 16.4%
Cc1ccc(/C=N\NC(=O)CC(=O)NCCc2ccccc2)cc1 | inactive: 6.75%
COC(=O)C(Cc1ccccc1)NC(=O)CNC(=O)c1sc2ccccc2c1Cl (stereo not drawn) | inactive: 10.6%
CC(=O)Nc1sc2c(c1C(c1ccccc1)N1CCOCC1)CCCC2 (stereo not drawn) | inactive: 22%
Cc1ccccc1C1NC(=O)Cc2ccccc21 (stereo not drawn) | inactive: 4.83%
Cc1cccc(NC(=S)N2CCOCC2)c1C | inactive: 7.74%
CC(C(=O)NC1CCCC1)N(C(=O)Cn1nnc(-c2ccc(F)cc2)n1)c1ccccc1F (stereo not drawn) | inactive: -7.59%
O=C(NC1(C(F)(F)F)N=C(c2ccccc2)NC1=O)c1ccccc1 (stereo not drawn) | inactive: -7.77%
COc1ccccc1NC(=O)Nc1nc(C(N)Cc2ccccc2)cs1 (stereo not drawn) | inactive: 1.41%

Structure (SMILES) | growth rescue (activation)
CN(C)S(=O)(=O)Oc1ccc(C(=O)Nc2cccc(Cl)c2)cc1 | inactive: 7.65%
O=C(Nc1ccc(S(=O)(=O)N2CCCCC2)cc1)C1CCCN(C(=O)c2ccc(Cl)cc2)C1 (stereo not drawn) | inactive: 2.2%
Cc1ccc2[nH]c(=O)c(CN(CCCN3CCOCC3)C(=O)Nc3ccc(Cl)cc3)cc2c1 | inactive: 2.7%
CCN(C(=O)CSc1ccc2ccccc2c1)C1CCS(=O)(=O)C1 (stereo not drawn) | inactive: 13.6%
CC(=O)Nc1cccc(Oc2ccc([N+](=O)[O-])cc2Cl)c1 | inactive: -0.647%
N#Cc1ccc(C(=O)CN2CCN(c3ccccc3)CC2)cc1 | inactive: 8.73%
O=C(NNC(=O)c1cccs1)c1ccc(Cl)cc1 | inactive: 18%
CCCC(=O)Nc1ccc(-c2cn3cccnc3n2)cc1 | inactive: 9.63%
CC(C)C(=O)Nc1ccc([N+](=O)[O-])cc1Br | inactive: 7.74%
O=C(COC(=O)c1ccc2ncsc2c1)Nc1ccc(OC(F)(F)F)cc1 | inactive: 19.1%
Cc1cc(C(=O)CSc2nn3c(=O)c(C(C)(C)C)nnc3s2)c(C)n1C1CC1 | inactive: 13.1%
COc1ccc(-c2[nH]ncc2CN2CCCO2)cc1F | inactive: 5.57%
Cn1cccc1C(=O)OCC(=O)NCc1cccs1 | inactive: 13.3%
O=C(CCNC(=O)c1ccc([N+](=O)[O-])cc1)NCc1cccs1 | inactive: 6.37%
COc1ccc(C2=NN(C(=O)c3ccco3)C(c3ccco3)C2)cc1OC (stereo not drawn) | inactive: 14.2%
COc1ccc(NC(=O)CN2C(=O)NC(c3ccccc3)(c3ccccc3)C2=O)cc1 | inactive: -4.91%
CC(=O)c1cccc(NC(=O)C(OC(=O)c2ccccc2NS(=O)(=O)c2cccs2)c2ccccc2)c1 (stereo not drawn) | inactive: 19.9%
CCOC(=O)C1(Cc2cccc(Cl)c2)CCCN(C(=O)c2cc(C)on2)C1 (stereo not drawn) | inactive: 18.9%
O=C(O)c1ccc(-n2c(/C=C\c3ccc(O)cc3)nc3ccccc3c2=O)cc1 | inactive: 2.94%
CC(C)Cc1nc2sc3c(=O)[nH]cnc3c2c2c1CCCC2 | inactive: 6.39%
CC(C)COc1ccc(CNC(=S)Nc2ccccc2)cc1Cl | inactive: 19.2%
COCCNc1nc(Nc2ccc(C#N)cc2)c2sccc2n1 | inactive: 16.8%

Structure (SMILES) | growth rescue (activation)
CC(C)Cn1cnc2c1c(=O)n(CC(=O)NN)c(=O)n2Cc1ccccc1 | inactive: -18.3%
CCCc1cc(=O)[nH]c(SCC(=O)Nc2cc(C)on2)n1 | inactive: 13.6%
CS(=O)(=O)Nc1ccc2[nH]c(=O)[nH]c2c1 | inactive: 1.01%
CCc1ccccc1NC(=O)Nc1ccc(F)cc1 | inactive: 8.83%
COc1ccc(-c2nn(-c3ccccc3)cc2/C=N/NC(=O)c2cccc(S(=O)(=O)Nc3ccccc3Cl)c2)cc1 | inactive: 20%
COc1cc(C(=O)Oc2ccccc2/C=N/NC(=O)c2ccc(Cl)cc2)cc(OC)c1OC | inactive: -6.81%
COc1ccc(CNC(=O)COC(=O)c2ccc(S(=O)(=O)N3CCOCC3)cc2)cc1 | inactive: -7.22%
COc1ccc(Cn2ccnc2CO)cc1[N+](=O)[O-] | inactive: -2.11%
COc1ccccc1C(=O)NNC(=O)CCCN1C(=O)/C(=C/c2cccs2)SC1=S | inactive: 19%
CC(=O)NNS(=O)(=O)c1ccccc1[N+](=O)[O-] | inactive: -11%
CC(=O)CCC(=O)N1CCC(n2nccc2NC(=O)c2ccccc2C)CC1 | inactive: -14.5%
COc1ccc(-n2c(C)cc(/C=C3/SC(=S)N(C)C3=O)c2C)cc1 | inactive: 15.8%
Cc1cc(C)c2c(c1)C(=O)/C(=C/c1ccc(C(=O)O)cc1)CC2 | inactive: 4.8%
COc1cc(/C=C/C(=O)OCC(=O)N2CCCc3ccccc32)ccc1O | inactive: 13.4%
CC(C)CNC(=O)C1(C)CCCN1C(=O)c1ccc2c(c1)CCO2 (stereo not drawn) | inactive: -3.94%
COc1cc(NC(=O)CSc2nc3cc(C)ccc3cc2C)c(C(=O)O)cc1OC | inactive: 12%
O=C(c1ccc2c(c1)OCO2)N1CCc2ccccc21 | inactive: 8.05%
COCCCNC(=O)c1ccc([N+](=O)[O-])cc1 | inactive: 4.7%
C=CCc1ccc(OCc2ccc(C(=O)O)o2)c(OC)c1 | inactive: 1.65%
CC(C)N1CCCC(CNC(=O)CCc2nnc(CCCCc3ccccc3)o2)C1 (stereo not drawn) | inactive: 2.1%
